Measurements: PubChem BioAssay AID1030 (National Center for Advancing Translational Sciences (NCATS), 2008)
“And” between values parts separate entries of the source, which are not always exact repeats. Equal values may be shown once. Among all 220,000 compounds or so, about 16,000 (7.3%) were called active. Inconclusive means that the source gave no clear call. Such entries were picked first, then a sample of the others. Calls follow the shape of the dose curve; as a rule, active = well fitted inhibition curve with a large enough effect (not every such curve was filed as active); inconclusive = small, poorly fitted or top-dose-only effect, or another doubt; inactive = no such curve, though single readings can be large or run the other way. No potency is given beside an inconclusive call; the fits are too rough.

Target: Aldehyde dehydrogenase 1A1 (Homo sapiens) (UniProt P00352)
Test: qHTS Assay for Inhibitors of Aldehyde Dehydrogenase 1 (ALDH1A1);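 as to activity, negative = inhibition: plate controls were no enzyme wells and a reference inhibitor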
Conditions: Purified ALDH1A1, NADH fluorescence, propionaldehyde substrate; series mostly up to 75.3 µM; activity, negative = inhibition: at the top concentration
Potency is read from the fitted curve at half-maximal effect; tags tell the direction and shape of the fitted curve.

Chain of UniProt P00352 (P00352 whole entry, looked up): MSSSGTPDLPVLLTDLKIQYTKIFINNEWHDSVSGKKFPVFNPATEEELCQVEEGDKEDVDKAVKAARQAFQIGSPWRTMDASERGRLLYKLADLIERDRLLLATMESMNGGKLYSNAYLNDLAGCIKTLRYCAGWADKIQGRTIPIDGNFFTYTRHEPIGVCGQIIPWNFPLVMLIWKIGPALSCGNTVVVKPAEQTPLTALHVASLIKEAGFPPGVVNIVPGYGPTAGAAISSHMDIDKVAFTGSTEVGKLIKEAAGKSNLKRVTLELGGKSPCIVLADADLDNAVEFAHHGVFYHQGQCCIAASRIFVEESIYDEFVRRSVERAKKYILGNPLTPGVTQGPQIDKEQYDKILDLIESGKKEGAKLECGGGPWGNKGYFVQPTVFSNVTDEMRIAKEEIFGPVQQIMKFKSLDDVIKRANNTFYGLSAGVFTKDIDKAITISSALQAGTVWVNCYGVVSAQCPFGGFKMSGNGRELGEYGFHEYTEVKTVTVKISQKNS

SMILES | Potency | activity, negative = inhibition
COc1ccc(/C=C/C2=CCN(C)CC2)cc1 | active: 25.1 µM | 
O=c1[nH]c(=O)n(Cc2ccco2)c(O)c1C=NCc1cccs1 | inconclusive [inhibitor, single point] | 
Cc1ccc2cc3cc(C(=O)N4CCC5(CC4)OCCO5)oc3nc2c1 | inconclusive [inhibitor, single point] | 
Cn1c2ccccc2c2c(C(=O)N3CCC4(CC3)OCCO4)cn(C3CCCC3)c(=O)c21 | inconclusive [inhibitor, partial curve] | 
O=C(O)CCn1cc(C=C2C(=O)NC(=S)NC2=O)c(-c2cc3ccccc3oc2=O)n1 | inconclusive [inhibitor, partial curve] | 
CN(Cc1c[nH]c2ccccc12)C1CCCCC1 | inconclusive [inhibitor, single point] | 
O=C(CN1CCCCC1)c1cccc(Br)c1 | active: 1.41 µM | 
CCCn1c(C)cc(C=O)c1C | active: 7.08 µM | 
CCN(CC)c1ccc(/C=C/[N+](=O)[O-])cc1 | inconclusive [inhibitor, single point] | 
COc1ccc(C(=O)CN2CCOCC2)cc1F | active: 14.1 µM | 
O=C(c1cc(-c2cccnc2)nc2ccc(Cl)cc12)N1CCC2(CC1)OCCO2 | active: 7.08 µM | 
CC1CC(OP(O)(=S)c2ccc(N(C)C)cc2NC(=O)c2cccs2)CC(C)(C)C1 (configuration not stated) | active: 3.98 µM | 
CCC(C)(C)c1ccc(O)cc1 |  | inactive: -12.2%
CCCCC(CC)CNCC(O)c1ccccc1 (configuration not stated) | inconclusive [inhibitor, single point] | 
Cc1cccc(N2C(=O)CC(=O)NC2=O)c1 |  | inactive: 6.96%
C=CCN(CC=C)C(=O)Nc1ccc(OCC)cc1 |  | inactive: 2.89%
O=C(O)CCn1cc(C=C2C(=O)NC(=S)NC2=O)c(-c2ccccc2)n1 | active: 1.12 µM | 
Cc1ccc(C2=NN(CCC(=O)N3CCC4(CC3)OCCO4)C(=O)CC2)cc1 | inconclusive [inhibitor, partial curve] | 
O=C1NC(=O)N(c2ccccc2F)C(=O)/C1=C/c1ccc(Oc2ccc([N+](=O)[O-])cn2)cc1 | inconclusive [inhibitor, single point] | 
C[C@@H](N)Cc1cnc[nH]1 |  | inactive: -0.931%
c1ccc(CN2CCC3(CCc4ccccc43)CC2)cc1 |  | inactive: 11.2%
O=C(c1ccc2c3c(cccc13)CC2)C1CCCN(CC2CC2)C1 (configuration not stated) | inconclusive [inhibitor, partial curve] | 
Cc1c(N=Nc2c(O)n(Cc3ccccc3)c(=O)[nH]c2=O)c(=O)n(-c2ccccc2)n1C |  | inactive: -4.87%
CCOC(=O)c1c(C)c(C(=O)N2CCC3(CC2)OCCO3)c(C)n1CC | inconclusive [inhibitor, single point] | 
O=C(C[n+]1ccn(CCCNP2(=O)C=C(c3ccccc3)OC(c3ccccc3)=C2)c1)c1ccccc1 | inconclusive [inhibitor, single point] | 
CN1CCN(C(=O)COc2ccc(-c3nc4ccccc4s3)cc2)CC1 | inconclusive [inhibitor, single point] | 

SMILES | Potency | activity, negative = inhibition
O=c1c2ccccc2nc(CNCC2CCCO2)n1-c1ccc(F)cc1 (configuration not stated) | inconclusive [inhibitor, single point] | 
O=S(=O)(O)c1ccc(O)c2ncccc12.O=S(=O)(O)c1ccc(O)c2ncccc12.[Zn] | inconclusive [inhibitor, partial curve] | 
CCOC(=O)c1c(/N=C/c2c(O)n(-c3ccc(F)cc3)c(=S)[nH]c2=O)sc2c1CCCC2 | active: 17.8 µM | 
O=C(c1cn(Cc2ccccc2)c2ccccc12)N1CCCCC1 |  | inactive: -5.78%
COc1ccc(OCc2n[nH]c(=S)n2Cc2ccco2)cc1 | inconclusive [inhibitor, single point] | 
C=CCN1C(=O)NC(=O)/C(=C/c2cccn2C)C1=O |  | inactive: 4.07%
Cc1ccc(-c2nc3ccccc3c(=O)n2-c2ccc(O)cc2)cc1 | inconclusive [inhibitor, single point] | 
CN1C(=O)C(Cc2c[nH]c3ccccc23)C(=O)N(C)C1=O | active: 14.1 µM | 
CCCCCCCCc1[se]c2ccccc2c1[Se]c1ccccc1 |  | inactive: 1.16%
O=C1CN=C(c2ccc(Br)cc2)c2c(sc3c2CCCC3)N1CCN1CCCCC1 | inconclusive [inhibitor, single point] | 
O=C(c1ccccc1)C(CN1CCCC1)c1ccccc1 (configuration not stated) | inconclusive [inhibitor, single point] | 
CCOP(=O)(OCC)C(NC(=O)c1ccccc1Cl)=C(Cl)Cl |  | inactive: 3.52%
NCCCP(=O)(O)CC1CCCCC1 | inactive | 
Fc1ccccc1CCNCc1cccc(Cl)c1Cl |  | inactive: -1.7%
CC1=C/C(=N\NC(=S)NCCc2ccccc2)CC(C)(C)C1 | inconclusive [inhibitor, single point] | 
NC(=O)c1cn(C2OC(CO)C(O)C2O)c2ncnc(N)c12 (configuration not stated) | inconclusive [inhibitor, single point] | 
Cc1oc(-c2cccs2)nc1CSCC(=O)N1CCC2(CC1)OCCO2 | inconclusive [inhibitor, single point] | 
COP(=O)(OC)C(Nc1ccccn1)c1ccccc1 (configuration not stated) | inconclusive [inhibitor, single point] | 
O=C(CCl)NN=C(c1ccccc1)c1ccccc1 | active: 0.0126 µM | 
COCCN1Cc2cc(=O)n3c([nH]c4ccccc43)c2C1=N | inconclusive [inhibitor, partial curve] | 
CC/C(=N\N1CCCCCC1)c1c(O)n(-c2ccccc2C)c(=O)[nH]c1=O |  | inactive: -15.3%
C#CCN1C(C)=C(C(=O)CCO)[C@@H](c2cccc(-n3oo3)c2)C(C(=O)OC)=C1C |  | inactive: -0.145%
N#Cc1cc2c(nc1SCC(=O)Nc1cc(Cl)ccc1Cl)C1CCN2CC1 | inconclusive [inhibitor, partial curve, poor fit] | 
CCN(CC)CCNCC(=O)Nc1ccc(Cl)cc1C(=O)c1ccccc1 | inconclusive [inhibitor, partial curve] | 
O=C(CSC1c2ccccc2-c2ccccc21)N/N=C/c1ccc(C(=O)O)cc1 | inconclusive [inhibitor, single point] | 
Cc1cccc(-n2c(O)c(C=NC34CN5CN(CN(C5)C3)C4)c(=O)[nH]c2=O)c1 | inconclusive [inhibitor, single point] | 

SMILES | Potency | activity, negative = inhibition
CCN(N=Nc1nonc1OC)c1nonc1OC | inconclusive [inhibitor, single point] | 
Nc1ccc(Br)cc1 | inconclusive [inhibitor, single point] | 
COc1ccc(CC2NC[C@H](O)[C@H]2OC(C)=O)cc1 (some centres not stated) |  | inactive: -2.04%
Cc1ccc(CNCCc2ccccc2F)cc1 |  | inactive: 1.3%
CN1CCN(c2ccc(C(N)=O)cc2[N+](=O)[O-])CC1 |  | inactive: 8.03%
O=C1CC2(CCCC2)CC(=O)N1CCCCN1CCN(c2ncccn2)CC1 | active: 4.47 µM and active: 3.55 µM | 
CCCCC/C=C\C/C=C\C/C=C\C/C=C\CCCCOC(CO)CO | inconclusive [inhibitor, single point] | 
O=C1NC(=O)C(C/C=C/c2ccccc2)C(=O)N1 | inconclusive [inhibitor, single point] | 
COc1nc2ccccc2c(=O)n1-c1ccc(Cl)cc1 |  | inactive: 4.32%
CCCNC(=O)c1c(N)n(Cc2ccc3c(c2)OCO3)c2nc3ccccc3nc12 | inconclusive [inhibitor, partial curve] | 
O=C(CSc1nnc2c3c4c(sc3ncn12)CCCC4)NCc1ccco1 | inconclusive [inhibitor, single point] | 
O=C1C(Cl)=C(N2CCCCCC2)C(=O)N1c1ccccc1 | inconclusive [inhibitor, partial curve] | 
C[N+](=O)[O-] |  | inactive: 10.2%
C[C@@H]1OC(=O)[C@H]2C[C@H]3CCCC[C@@H]3[C@@H](/C=C/[C@H]3CCC[C@H](C)N3C)[C@@H]12 |  | inactive: -6.42%
CN1C(=O)/C(=C\c2ccc(N3CCCCCC3)cc2)C(=O)NC1=S | active: 0.0708 µM | 
CCCOC(=O)C1C2c3ccccc3C(c3ccccc32)C1C(=O)O (configuration not stated) |  | inactive: -3.46%
Cc1ncc(CN2CCCC(C(=O)c3cccc(Cl)c3)C2)s1 (configuration not stated) | inconclusive [inhibitor, single point] | 
Cc1cc(C)c(Cn2c(C(=O)O)c(C=O)c3ccccc32)c(C)c1 | active: 14.1 µM | 
CCN(CC)S(=O)(=O)N1CCC(C(=O)N2CCC3(CC2)OCCO3)CC1 | inconclusive [inhibitor, single point] | 
COc1ccccc1N1C(=O)NC(=O)C2(Cc3cc(C)ccc3N(C)C2)C1=O (configuration not stated) | inconclusive [inhibitor, single point] | 
CC(C)N(CC(O)c1cccc([N+](=O)[O-])c1)C(C)C (configuration not stated) |  | inactive: -11.1%
O=c1[nH]c(=S)n(-c2ccccc2F)c(O)c1C=Nc1ccc(N2CCOCC2)cc1 | inconclusive [inhibitor, single point] | 
CC(=O)NC1N=C(C)N(c2ccccc2)C1=O (configuration not stated) | inconclusive [inhibitor, single point] | 
O=c1c2ccccc2nc(CSc2ncnc3nc[nH]c23)n1-c1ccccc1 | inconclusive [inhibitor, single point] | 
Cc1onc(-c2ccccc2)c1C(=O)NC1C(=O)N2C(C(=O)O)C(C)(C)S[C@@H]12 (some centres not stated) |  | inactive: -10.7%
